Laboratory results published in PubChem BioAssay AID504332 (National Center for Advancing Translational Sciences (NCATS), 2011).
Values joined by “and” are separate entries in the source; they are usually repeats but may differ in a detail not shown here. Identical values can stand only once. About 31,000 (8.9%) of roughly 350,000 compounds were called active. The inconclusive results got no clear call from the source; some entries with a clear call stand among them for comparison. Calls come from the whole dose curve; as a rule, active = well fitted inhibition curve with a large enough effect; inconclusive = small, poorly fitted or top-dose-only effect; inactive = no such curve, though single readings can be large or run the other way. Potencies of inconclusive entries are doubtful fits and often do not repeat. Some structures have more than one record in an assay (separate samples or runs), and their calls can disagree.
% is set by controls: 0 for no effect and ±100 for the full control effect; potency is the fitted concentration of half-maximal effect; tags give direction and shape of the fitted curve.
Note: nearly all actives have a fitted effect of over 75% in size.

What follows are molecules tested against Histone-lysine N-methyltransferase EHMT2 (Homo sapiens) (UniProt Q96KQ7) (assay: qHTS Assay for Inhibitors of Histone Lysine Methyltransferase G9a). Details: G9a H3K9 monomethylation, AlphaScreen, 2 h; activity, negative = inhibition: at 59 µM (top of the series) unless noted.
Sequence of UniProt Q96KQ7 (Q96KQ7 whole entry, looked up): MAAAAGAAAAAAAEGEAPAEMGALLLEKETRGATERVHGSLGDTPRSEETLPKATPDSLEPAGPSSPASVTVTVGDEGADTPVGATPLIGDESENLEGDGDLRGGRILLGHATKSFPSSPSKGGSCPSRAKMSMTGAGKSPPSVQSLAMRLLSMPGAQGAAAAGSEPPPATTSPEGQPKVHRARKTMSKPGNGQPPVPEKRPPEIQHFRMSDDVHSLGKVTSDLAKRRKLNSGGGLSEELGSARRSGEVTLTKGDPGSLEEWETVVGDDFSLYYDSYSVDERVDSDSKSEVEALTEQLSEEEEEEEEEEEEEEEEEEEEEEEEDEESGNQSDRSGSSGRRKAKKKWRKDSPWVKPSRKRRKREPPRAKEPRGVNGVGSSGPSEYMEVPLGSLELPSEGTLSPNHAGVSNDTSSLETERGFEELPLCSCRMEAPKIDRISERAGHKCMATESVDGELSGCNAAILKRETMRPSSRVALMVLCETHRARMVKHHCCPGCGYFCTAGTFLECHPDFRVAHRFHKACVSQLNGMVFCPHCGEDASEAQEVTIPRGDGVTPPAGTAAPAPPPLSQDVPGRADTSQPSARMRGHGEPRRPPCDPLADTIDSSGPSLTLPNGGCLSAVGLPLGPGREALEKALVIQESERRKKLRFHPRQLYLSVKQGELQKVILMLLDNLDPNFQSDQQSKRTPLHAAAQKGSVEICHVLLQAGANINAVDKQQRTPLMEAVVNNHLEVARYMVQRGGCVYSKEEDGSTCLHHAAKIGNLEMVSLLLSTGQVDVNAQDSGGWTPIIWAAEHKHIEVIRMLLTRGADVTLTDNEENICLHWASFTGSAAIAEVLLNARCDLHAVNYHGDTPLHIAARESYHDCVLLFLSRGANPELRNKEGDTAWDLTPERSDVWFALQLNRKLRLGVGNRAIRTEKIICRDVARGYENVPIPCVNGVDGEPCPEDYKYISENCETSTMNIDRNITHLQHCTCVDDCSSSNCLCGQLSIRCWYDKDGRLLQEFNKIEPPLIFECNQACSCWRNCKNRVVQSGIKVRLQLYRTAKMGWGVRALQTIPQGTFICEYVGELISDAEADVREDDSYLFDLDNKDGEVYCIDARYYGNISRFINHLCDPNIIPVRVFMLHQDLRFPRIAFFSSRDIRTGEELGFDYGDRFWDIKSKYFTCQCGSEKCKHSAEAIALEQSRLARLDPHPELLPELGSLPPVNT
Method in brief: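 G9a (20 nM) was preincubated 15 min with compound, then reacted 2 h at room temperature with 500 nM biotin-H3K9 peptide and 20 µM SAM. Monomethyl-H3K9 detected by AlphaScreen using anti-H3K9me1 antibody.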
For `O=[N+]([O-])c1ccc(Sc2n[nH]c(-c3ccncc3)n2)nc1`, the Potency was active: 44.7 µM. `COc1ccc(OC)c(NC(=O)CSc2c3c(nc4ccccc24)CCCC3)c1` was tested, and the Potency was inconclusive: 25.1 µM [inhibitor, partial curve, poor fit]. `CC(C)c1cccc(OCCCCN(C)C)c1` was tested, and the Potency was active: 3.98 µM. With `Nc1nncn1C(=O)CCCOc1ccc(Cl)cc1Cl` the Potency was inconclusive: 25.1 µM [inhibitor, single point]. In the case of `O=C(CSc1nnc2ccccn12)Nc1cccc(S(=O)(=O)N2CCOCC2)c1`, the Potency is reported as inconclusive: 79.4 µM [inhibitor, single point]. `COc1cccc(-c2nc(NCc3ccco3)c3ccccc3n2)c1O` was tested, and the Potency was inconclusive: 25.1 µM [inhibitor, single point]. `CCOC(=O)c1c(NC(=O)CN2CCN(C)CC2)sc(C(=O)Nc2ccccc2)c1C` was tested, and the activity, negative = inhibition was inconclusive: -56.4% [inhibitor]. For `COC(=O)c1cc(OC)c(OC)cc1NC(=O)CN1C(=O)c2ccccc2C1=O`, the Potency was “inactive”. With `O=C(COC(=O)COc1ccccc1)NCc1ccco1` the activity, negative = inhibition was inactive: -6.93% [at 0.501 µM]. In the case of `CC(=O)c1cccc(OCC(=O)c2cc(C)n(-c3cc(C)on3)c2C)c1`, the Potency is reported as active: 50.1 µM. For `CCCC(=Nc1ccccc1)C1=C(O)C(C(=O)OC)C(C)(C)CC1=O` (centres undefined), the Potency was inconclusive: 39.8 µM [inhibitor, single point]. `Cc1cc(=O)[nH]c(SCCCOc2ccc3c(c2)CCC3)n1` was tested, and the Potency was inconclusive: 89.1 µM [inhibitor, single point]. `COc1ccc(/C=C\c2onc(C)c2S(=O)(=O)N2CCC(C(=O)Nc3ccccc3OC)CC2)cc1` was tested, and the Potency was “inactive”. In the case of `CC(c1nc2ccccc2c(=O)[nH]1)N1CCN(C)CC1` (centres undefined), the activity, negative = inhibition is reported as inconclusive: -60.4% [inhibitor]. `Cc1ccc(C2C(C#N)=C(N)Oc3c2c(=O)n(C)c(=O)n3C)cc1` (centres undefined) was tested, and the Potency was inconclusive: 79.4 µM [inhibitor, single point]. With `COc1ccc(NC(=O)/C=C/C(=O)O)c(OC)c1` the Potency was inconclusive: 89.1 µM [inhibitor, partial curve, poor fit]. `CCO/N=C(/C)c1c(O)cc(-c2ccccc2)n(-c2ccccc2)c1=O` was tested, and the Potency was inconclusive: 0.447 µM [inhibitor, full curve, poor fit]. In the case of `Cc1ccc(OC(=O)c2cc(-c3ccc4c(c3)OCCO4)on2)c(C)c1`, the Potency is reported as “inactive”. With `COc1cc2c(cc1OC)CC(=O)N(C)CC2` the Potency was “inactive”. In the case of `Cc1c(NC(=O)CN(c2ccc(F)cc2)S(=O)(=O)c2ccccc2)c(=O)n(-c2ccccc2)n1C`, the Potency is reported as active: 44.7 µM. For `c1ccc2[nH]c(-c3ccnc4ccccc34)nc2c1`, the Potency was “inactive and active: 8.91 µM”. For `COc1cccc(C(=O)NCCS(=O)(=O)N2CCCC2)c1`, the Potency was active: 31.6 µM. For `Cc1cc(-c2ccco2)n2c(nc3ccccc32)c1C#N`, the activity, negative = inhibition was inconclusive: -67% [inhibitor]. `CCOc1ccc(NC(=O)CN(C)C(=O)c2ccccc2Cc2ccccc2)cc1OCC` was tested, and the Potency was “inactive”. For `CCOC(=O)N1CCN(c2cc(C)c([N+](=O)[O-])cc2F)CC1`, the Potency was inconclusive: 39.8 µM [inhibitor, single point]. For `CC(OC(=O)CSc1ccc([N+](=O)[O-])cc1)C(=O)NCc1ccco1` (centres undefined), the Potency was “inactive”. For `CCCc1ccc2oc(C(=O)N(Cc3nccn3C)C(C)C)c(C)c2c1`, the Potency was inconclusive: 89.1 µM [inhibitor, single point]. For `Cc1ccc(SCc2c(C(=O)N/N=C/c3ccoc3)nnn2-c2nonc2N)cc1`, the Potency was “inactive”. In the case of `CCCCN(CC)C(=O)c1oc2ccc(S(=O)(=O)N3CCCC3)cc2c1C`, the Potency is reported as “inactive”. With `CCOC(=O)c1c(NC(=O)c2ccccc2)sc2c(O)c(CN(CC)CC)ccc12` the Potency was active: 50.1 µM. With `O=C(COC(=O)c1cc(S(=O)(=O)N2CCCC2)ccc1O)NCc1ccccc1` the Potency was inconclusive: 89.1 µM [inhibitor, partial curve, poor fit]. `CN(C)c1ccc(CNc2nc(-c3ccco3)nn2S(=O)(=O)c2ccc3ccccc3c2)cc1` was tested, and the Potency was active: 7.94 µM. `S=c1[nH]nc(CSCCOc2ccc(Cl)cc2Cl)o1` was tested, and the Potency was active: 20 µM. For `Cc1cc(C)c2c(CC(=O)N(Cc3ccc(N(C)C)cc3)Cc3ccco3)coc2c1`, the Potency was active: 11.2 µM. With `CCOC(=O)c1cn(CC(=O)Nc2cccc(Cl)c2)nn1` the Potency was inconclusive: 79.4 µM [inhibitor, single point]. With `CCN(CCNC(=O)CN1CCN(Cc2ccc(Cl)cc2)C1=O)c1ccccc1` the Potency was active: 11.2 µM. `O=C(N/N=C/c1ccccn1)c1ccc(Cl)cc1` was tested, and the Potency was inconclusive: 0.562 µM [inhibitor, full curve, poor fit]. With `C=CCn1c(CNC(=O)c2cccs2)nnc1SCC(=O)Nc1ccc(C(=O)O)cc1` the Potency was inconclusive: 3.16 µM [inhibitor, partial curve, poor fit]. In the case of `Cc1ccccc1-n1c(Cn2c(=O)sc3ccccc32)nnc1SCC(N)=O`, the Potency is reported as inconclusive: 79.4 µM [inhibitor, partial curve, poor fit]. With `COc1ccccc1CNc1ccc(-c2nc(C(C)C)no2)cc1[N+](=O)[O-]` the Potency was “inactive”. In the case of `Cc1c(Cl)ccc2sc(N3CCN(C(=O)c4ccco4)CC3)nc12`, the Potency is reported as “inactive”. In the case of `Cn1nnnc1SCCCNCc1cccc(OCc2ccc(Cl)cc2)c1`, the Potency is reported as “inactive”. `CC(C)CCOc1ccc(C(=O)Nc2sc3c(c2C#N)CCCCC3)cc1` was tested, and the activity, negative = inhibition was inconclusive: -51.6% [inhibitor]. In the case of `CCCCCn1c(CN2CCN(c3cccc(Cl)c3)CC2)nc2c1c(=O)[nH]c(=O)n2C`, the Potency is reported as inconclusive: 89.1 µM [inhibitor, single point]. For `CCc1cc2c(cc(C(=O)O)n2C)s1`, the Potency was inconclusive: 89.1 µM [inhibitor, single point]. For `COc1ccc(NC(=O)/C(C#N)=C/c2ccc(-c3ccccc3C(=O)O)o2)cc1`, the Potency was “inactive”. `CCOC(=O)C1CCN(C(c2ccccc2OC)c2c(O)cc(C)n(CCOC)c2=O)CC1` (centres undefined) was tested, and the Potency was “inactive”. For `CCCC(=O)C1=C(N2CCCCC2)CC(C)(C)C(C(=O)OC)C1=O` (centres undefined), the Potency was inconclusive: 89.1 µM [inhibitor, partial curve, poor fit]. `Cc1ccc(C(=O)Nc2ccc(Cl)c(-c3nc4ncccc4o3)c2)c(C)c1` was tested, and the Potency was “inactive”. In the case of `Cc1ccccc1OCc1ccc(-c2nc(C#N)c(NCCCN(C)C)o2)o1`, the Potency is reported as inconclusive: 17.8 µM [inhibitor, single point]. `O=C(O)C1CSC(CCc2ccccc2)N1` (centres undefined) was tested, and the Potency was inconclusive: 0.794 µM [inhibitor, full curve, poor fit]. For `Cc1cccc(C(=O)NNC2=C(C(=O)C(F)(F)F)CCC2)c1O`, the Potency was inconclusive: 70.8 µM [inhibitor, partial curve]. `Cc1cc(=O)[nH]c(SCc2cn3ccccc3n2)n1` was tested, and the Potency was active: 50.1 µM. With `COc1ccc(NC(=O)CSC2CC(=O)N(c3ccc4c(c3)OCCO4)C2=O)cc1` (centres undefined) the Potency was inconclusive: 3.16 µM [inhibitor, partial curve, poor fit]. `CCn1c2nc(SCCN3CCOCC3)nnc2c2cc(C)cc(C)c21` was tested, and the Potency was inconclusive: 89.1 µM [inhibitor, single point]. With `O=C(COC(=O)c1cccc(Cl)c1)NC1CCCCCCC1` the Potency was inconclusive: 1 µM [inhibitor, partial curve, poor fit]. With `CCCCC(=O)Nc1nnn(CCC)n1` the activity, negative = inhibition was inactive: 4.01% [at 12.7 µM]. With `O=C(CN1C(=O)C(=O)c2ccccc21)c1ccccc1` the Potency was “inactive”. In the case of `Cc1c(C(=O)NC2CCS(=O)(=O)C2)oc2ccccc12` (centres undefined), the Potency is reported as active: 44.7 µM. With `Cn1c(SCC(=O)N2CCCC2)nc2cccnc21` the Potency was inconclusive: 28.2 µM [inhibitor, partial curve, poor fit]. `Cc1cccc(C)c1NC(=O)CN1C(=O)S/C(=C\c2cccn2-c2cccc(C(=O)O)c2)C1=O` was tested, and the activity, negative = inhibition was inconclusive: -58.5% [inhibitor]. With `O=C(CC1N=C2c3ccccc3N=C(SCc3ccccc3Cl)N2C1=O)NCc1ccco1` (centres undefined) the Potency was inconclusive: 22.4 µM [inhibitor, single point]. `CCOc1ccccc1NC(=O)C1CCN(S(=O)(=O)c2c(C)noc2/C=C/c2ccc(C)cc2)CC1` was tested, and the Potency was “inactive”. `O=C(Nc1cccc(-n2cnnn2)c1)c1ccoc1COc1ccc(Cl)cc1` was tested, and the Potency was inconclusive: 89.1 µM [inhibitor, single point]. For `NC(=S)NS(=O)(=O)c1ccc(N)cc1`, the Potency was inconclusive: 3.16 µM [inhibitor, partial curve, poor fit]. `Cc1cccc(-n2c(SCC(N)=O)nc3c(oc4ccccc43)c2=O)c1` was tested, and the Potency was “inactive”. `CCOc1cnc(-c2ccc(Cl)cc2)o1` was tested, and the activity, negative = inhibition was inconclusive: -54.7% [inhibitor]. With `Cn1c(-c2nnn(-c3ccc(F)cc3)n2)cc2ccccc21` the activity, negative = inhibition was inconclusive: -87.3% [inhibitor]. With `O=C(CSc1nnc(-c2cnccn2)n1Cc1ccco1)c1ccc(Cl)cc1` the Potency was inconclusive: 3.98 µM [inhibitor, partial curve, poor fit]. `COC(=O)/C(=C/c1ccc2c(c1)c1ccccc1n2C)NC(=O)c1ccccc1` was tested, and the Potency was “inactive”. For `Cc1cc(/C=C(\C#N)C(=O)Nc2ccc(Cl)cc2)c(C)n1-c1ccc(N2CCOCC2)c([N+](=O)[O-])c1`, the Potency was “inactive”. With `CCCCCc1cc(=O)oc2c(C(CCN3CCN(c4ccccc4)CC3)c3ccc(N(C)C)cc3)c(OC)cc(OC)c12` (centres undefined) the Potency was inconclusive: 3.16 µM [inhibitor, single point]. `COC(=O)c1ccc(OC(=O)C2CSC3(C)CCC(=O)N23)cc1` (centres undefined) was tested, and the Potency was active: 56.2 µM. `COc1ccc(Cl)cc1NC(=O)Cn1ccn(Cc2ccc(C)cc2)c(=O)c1=O` was tested, and the Potency was inconclusive: 35.5 µM [inhibitor, partial curve, poor fit].
